Results taken from PubChem BioAssay AID463173 (ICCB-Longwood Screening Facility, Harvard Medical School, 2010).
Out of some 52,000 compounds screened, about 4,300 (8.3%) were called active. Cut-off read from the data, not from the text of the source: active = survival mostly below about 52% (no sharp cut-off); inactive = mostly above about 56%. This is one part of the list.

system: DeltatarO mutant; test: S. aureus survival, RN4220 and DeltatarO strains – OD600, teichoic acid synthesis inhibitors, primary screen (AID 463173); conditions: S. aureus RN4220 wild type/DeltatarO growth, OD600, 18 h, active compounds read low, screened at 18.75 µg/mL (by protocol)

SMILES | survival
Cc1cc(C)cc(-n2ccnc2SCC(=O)Nc2cccc3ccccc23)c1 | inactive: 77%
COc1ccc(NC(=O)C2CCC(CNS(=O)(=O)c3cccc4nsnc34)CC2)cc1OC (stereo not drawn) | inactive: 86%
CCCOC(=O)c1cccc(Nc2nc(CCC)cc(=O)[nH]2)c1 | active: 10%
CCOC(=O)Cn1c(=N)n(Cc2ccc(C(C)(C)C)cc2)c2ccccc21 | inactive: 103%
COCCNC(=O)CCCn1c(SCC(=O)Nc2ccc(F)cc2)nc2c(sc3ccccc32)c1=O | inactive: 76%
Cc1nc2cc(-c3ccccc3)nn2c(C)c1CCC(=O)N1CCN(c2ccc(F)cc2)CC1 | inactive: 50%
COC(=O)c1cc2oc(C)cc2n1Cc1ccccc1Cl | active: -8%
CSc1nc(NCCOC(C)=O)c(C#N)c(-c2ccc(C(C)(C)C)cc2)n1 | inactive: 67%
COc1ccc(C2C(=O)N(C3CCCCC3)CC(=O)N2CCc2ccc(C)cc2)cc1OC (stereo not drawn) | inactive: 89%
Cc1ccc2nc(CN3CCN(C(=O)Nc4ccc(F)cc4)CC3)oc2c1 | inactive: 80%
CNC(=O)C1CCC(Cn2c(=O)c3sccc3n(Cc3cc(C)ccc3C)c2=O)CC1 (stereo not drawn) | active: 47%
COc1ccc(N2C(=O)NC(NS(=O)(=O)c3ccc(Cl)cc3)(C(F)(F)F)C2=O)cc1 (stereo not drawn) | inactive: 166%
CCc1ccc(S(=O)(=O)c2cn(CC(=O)Nc3ccc(F)c(Cl)c3)c3ccccc3c2=O)cc1 | inactive: 71%
CCN(C(=O)Cn1c(C(=O)OC)cc2sc(Cl)cc21)c1cccc(C)c1 | inactive: 100%
COC1(OC)c2nonc2C(OC)(OC)c2nonc21 | inactive: 98%
NC(=O)CSc1nnc(-c2ccc(S(=O)(=O)N3CCCC3)cc2)o1 | inactive: 78%
COc1ccc(Nc2nc(C(=O)NCc3ccco3)cs2)cc1 | inactive: 96%
CCOc1ccc(-c2cn3c(n2)sc2cc(C(=O)NCCCN4CCCCCC4)ccc23)cc1 | active: -2%
CCc1ccc2oc(C(=O)NCC(c3ccc(OC)cc3)N3CCCCC3)c(C)c2c1 (stereo not drawn) | inactive: 81%
CC1=C(C(=O)Nc2cccnc2)C(c2ccc(F)cc2)n2nc(-c3cccc(C)c3)nc2N1 (stereo not drawn) | inactive: 49%
Cc1cc(NC(=O)C2CCN(S(=O)(=O)c3c(C)noc3C)CC2)ccc1Br | inactive: 72%
COc1ccccc1C(=O)Nc1ccc(NC(=O)c2ccccc2)nc1 | inactive: 92%

SMILES | survival
CCc1c(C)nc(SCC(=O)Nc2ccc3c(c2)OCCO3)[nH]c1=O | inactive: 69%
COc1ccc(-c2nc3nc(C)cc(C)n3c2Nc2c(C)cccc2C)cc1 | inactive: 53%
COc1ccccc1CNC(=O)C1(c2cccs2)CCOCC1 | inactive: 75%
N/C(=N\OC(=O)c1ccccc1)c1cccnc1 | inactive: 87%
COc1ccc(NC(=O)CCc2c(C)nc3c(c2C)c(=O)n(C)c(=O)n3C)c(OC)c1 | inactive: 100%
CCc1ccccc1NC(=O)Cn1nc2c3cc(F)ccc3n(Cc3cccc(C)c3)cc-2c1=O | inactive: 84%
O=C(COc1ccccc1F)Nc1ccc2nc(SCC(=O)N3CCc4ccccc43)sc2c1 | inactive: 61%
O=S(=O)(c1ccc2ccccc2c1)N1CCCCCC1 | inactive: 95%
CCOC(=O)c1c(NC(=O)c2cc(-c3ccccc3OC)on2)sc(C)c1C | inactive: 61%
Cc1cc(C)cc(OCCSc2nc3ccc(NC(=O)c4ccc5c(c4)OCO5)cc3s2)c1 | inactive: 64%
Oc1ccccc1-c1nc(-c2cccs2)c(-c2cccs2)[nH]1 | active: 0%
O=C(COc1ccccc1Cl)Nc1ccc(OCc2cc(=O)n3ccsc3n2)cc1 | inactive: 82%
CCc1ccc(OCC(=O)Nc2ccc3c(c2)c2ccccc2n3CC)cc1 | inactive: 51%
N#Cc1c[nH]n2c(NC3CCCCC3)c(-c3ccc(F)cc3)nc12 | inactive: 53%
Cc1cccc(-n2ccnc2SCC(=O)Nc2cccc3ccccc23)c1 | inactive: 95%
CCOc1cc(C2c3c(-c4cc(C)ccc4O)n[nH]c3C(=O)N2CCCOC(C)C)ccc1O (stereo not drawn) | inactive: 90%
CCn1ccc2cc(S(=O)(=O)N3CCCN(C(=O)Nc4ccccc4F)CC3)ccc21 | inactive: 93%
O=C(COC(=O)c1cc(-c2cccs2)nc2ccccc12)c1ccc(F)cc1 | inactive: 51%
O=C(CSc1nnc(-c2ccc3c(c2)OCO3)o1)Oc1ccccc1 | inactive: 87%
COc1cccc(Cn2c(SCC(=O)N3CCN(c4ccc(F)cc4)CC3)nc3ccccc32)c1 | inactive: 66%
COc1ccccc1NC(=O)CSc1ncc2c(n1)-c1ccccc1N(Cc1ccccc1C)S2(=O)=O | inactive: 101%
Cc1ccc(CN(C(=O)c2ccc(C(C)(C)C)cc2)c2ccccn2)o1 | inactive: 53%

SMILES | survival
Cc1nonc1C(=O)NCC(=O)O | inactive: 94%
CCOc1ccccc1CNC(=O)c1sc2ncccc2c1-n1cccc1 | inactive: 101%
CC(C)CC(=O)Nc1ccc2nc(SCC(=O)N3CCc4ccccc43)sc2c1 | inactive: 102%
O=C(Cc1ccccc1)Nc1sc2c(c1C(=O)Nc1ccccc1Cl)CCCCC2 | inactive: 47%
CC(C)c1ccc(NC(=O)CSC2=Nc3ccccc3C3=NC(CCC(=O)NC4CCCCC4)C(=O)N23)cc1 (stereo not drawn) | inactive: 88%
Cc1cc(C)n(-c2nc(N(c3ccccc3)c3ccccc3)nc(-n3nc(C)cc3C)n2)n1 | inactive: 95%
COc1ccc2c(c1)CCc1c(C(=O)Nc3cc(OC)c(Cl)cc3OC)noc1-2 | inactive: 151%
COC(=O)c1cc(Nc2nc3ccccc3nc2NS(=O)(=O)c2ccc(C)cc2)ccc1Cl | active: 29%
O=C(Cn1c(=O)n(Cc2nc(-c3ccccc3)no2)c(=O)c2cc3c(cc21)OCO3)Nc1ccccc1 | inactive: 75%
CCC(C)n1c(=O)c2sccc2n2c(CCCC(=O)N3CCN(c4ccccc4)CC3)nnc12 (stereo not drawn) | inactive: 89%
CCOc1ccc(-n2c(SCC(=O)Nc3cc(C)ccc3C)nc3c([nH]c4ccccc43)c2=O)cc1 | inactive: 75%
Cc1ccc(Cn2cc(S(=O)(=O)c3cccc(C)c3)c(=O)c3cc(F)c(N4CCOCC4)cc32)cc1 | inactive: 84%
COc1ccc(CNC(=O)c2sc3nc4n(c(=O)c3c2C)CCCC4)cc1 | inactive: 73%
O=C(Nc1cc(-c2ccccc2)sc1C(=O)O)c1cccc(F)c1 | active: 38%
Cc1ccccc1NC(=O)CSc1nccc(=O)[nH]1 | inactive: 59%
CCn1c2ccccc2c2cc(CN3CCN(Cc4ccc(Br)cc4)CC3)ccc21 | active: -1%
CC1N=C2c3ccccc3N=C(SCC(=O)NCCc3ccc(Cl)cc3)N2C1=O (stereo not drawn) | inactive: 80%
O=C(CCS(=O)(=O)c1cc2c(cc1Cl)NC(=O)CO2)NCc1ccc(Cl)cc1 | inactive: 86%
Cc1cccc(Nc2ncnc3onc(-c4ccc(Cl)cc4)c23)c1C | inactive: 112%
Cc1ccc(-n2c(=O)c3cccnc3n2CC(=O)NCc2ccc(Cl)cc2)cc1 | inactive: 50%
Cc1ccc2oc3c(c(=O)c2c1)C(c1ccc(O)cc1)N(CCCN(C)C)C3=O (stereo not drawn) | inactive: 130%
COc1ccc(C(=O)Nc2cccc(C(=O)OCc3cc(=O)n4nc(C5CC5)sc4n3)c2)cc1 | inactive: 115%

SMILES | survival
Cc1cc(F)ccc1NC(=O)C(c1ccccc1)N1Cc2ccccc2C1=O (stereo not drawn) | inactive: 94%
Nc1c(C(=O)Nc2ccc(F)cc2)sc2nc(-c3cccs3)cc(C(F)(F)F)c12 | inactive: 60%
COC(=O)c1ccc([C@@H]2Nc3c(OC)ccc(C)c3[C@@H]3C=CC[C@@H]32)cc1 | inactive: 49%
Cc1ccc(-c2cn3cccnc3n2)cc1NC(=O)C(C)(C)Oc1ccc(Cl)cc1 | inactive: 89%
COc1ccc(Cl)cc1NC(=O)c1c(NCc2ccc(C)o2)sc2c1CCC(C)C2 (stereo not drawn) | inactive: 81%
Cc1c(C(=O)Nc2ccccc2Br)oc2ccc(S(=O)(=O)N3CCCCCC3)cc12 | inactive: 74%
C=C(C)CSc1nc2sc3c(c2c(=O)n1Cc1ccccc1)CC(C)(CC)OC3 (stereo not drawn) | active: 42%
CCC(C)NC(=O)CN1C(=O)c2cccnc2Sc2ccccc21 (stereo not drawn) | inactive: 87%
COc1cccc(NCc2cccn2-c2nnc(N3CCC(C)CC3)s2)c1 | inactive: 135%
O=c1cc(-c2ccccc2)c2ccc3c(c2o1)CN(Cc1cccc(Cl)c1)CO3 | inactive: 52%
Cc1ccccc1NC(=O)Cn1c(=O)n(CCCC(=O)NCc2ccc3c(c2)OCO3)c(=O)c2ccccc21 | inactive: 111%
COc1ccc2[nH]cc(CCN=C(NC(=O)c3ccccc3F)Nc3nc(C)cc(C)n3)c2c1 | inactive: 99%
COC(=O)c1ccccc1NC(=O)c1noc2c1CSc1ccccc1-2 | inactive: 67%
COc1ccc2nc(NC(=O)c3ccc(S(=O)(=O)N4CCC(C)CC4)cc3)sc2c1 | inactive: 91%
CCOC(=O)c1cccc(NC(=O)NCCc2c(C)nn(C)c2C)c1 | inactive: 79%
Cc1cccc(C)c1OCCCCn1c(C2CC(=O)N(c3ccc(F)cc3)C2)nc2ccccc21 (stereo not drawn) | inactive: 77%
CCc1ccc(NC(=O)N2CCN(Cc3cc(=O)n4nc(-c5ccccc5OC)sc4n3)CC2)cc1 | inactive: 94%
Cn1c(=O)c2sccc2n2c(CCC(=O)N3CCN(c4ccccc4)CC3)nnc12 | inactive: 187%
CCOc1cc(S(=O)(=O)N2CCC(c3nc4ccccc4s3)CC2)c(OCC)cc1S(=O)(=O)N1CCOCC1 | inactive: 98%
COC(=O)C(Sc1nc(C)cc(C)c1C#N)c1ccccc1 (stereo not drawn) | inactive: 64%
COc1ccccc1Cc1nc2ccccc2nc1SCC(=O)NCCc1ccccc1 | inactive: 102%
CCN(CC)CCCNC(=O)c1c(C)oc2ncnc(N3CCOCC3)c12 | inactive: 124%
